# Source: paper PMC10192561, “Studies on the inhibitory effect of isavuconazole on flumatinib metabolism in vitro and in vivo” (Frontiers in Pharmacology, 2023)
# B1: recombinant human CYP3A4 (rCYP3A4) (Homo sapiens) (protein)
# chain: MALIPDLAMETWLLLAVSLVLLYLYGTHSHGLFKKLGIPGPTPLPFLGNILSYHKGFCMFDMECHKKYGKVWGFYDGQQPVLAITDPDMIKTVLVKECYSVFTNRRPFGPVGFMKSAISIAEDEEWKRLRSLLSPTFTSGKLKEMVPIIAQYGDVLVRNLRREAETGKPVTLKDVFGAYSMDVITSTSFGVNIDSLNNPQDPFVENTKKLLRFDFLDPFFLSITVFPFLIPILEVLNICVFPREVTNFLRKSVKRMKESRLEDTQKHRVDFLQLMIDSQNSKETESHKALSDLELVAQSIIFIFAGYETTSSVLSFIMYELATHPDVQQKLQEEIDAVLPNKAPPTYDTVLQMEYLDMVVNETLRLFPIAMRLERVCKKDVEINGMFIPKGVVVMIPSYALHRDPKYWTEPEKFLPERFSKKNKDNIDPYIYTPFGSGPRNCIGMRFALMNMKLALIRVLQNFSFKPCKETQIPLKLSLGGLLQPEKPVVLKVESRDGTVSGA
# Substrate: Cc1ncc(NC(=O)c2ccc(CN3CCN(C)CC3)c(C(F)(F)F)c2)cc1Nc1nccc(-c2cccnc2)n1
# Experiment: cells, lysate or membranes named
# Settings: other: flumatinib as substrate, rCYP3A4; 37.0 °C
protein,measurement,value
B1,Km,3.06 µM
